# “And” between values parts separate entries of the source, which are not always exact repeats. Equal entries are not always repeated. About 64,000 (15%) of roughly 420,000 compounds were called active. Inconclusive means that the source gave no clear call. Such entries were picked first, then a sample of the others. The call rests on the fitted dose curve; in most records, active means well fitted inhibition curve with a large enough effect; inconclusive means small, poorly fitted or top-dose-only effect; inactive means flat fitted curve, though single readings scatter. Potencies beside an inconclusive call are fits to weak or partial responses and may not hold up.
# Assay: qHTS for Inhibitors of human tyrosyl-DNA phosphodiesterase 1 (TDP1): qHTS in cells in absence of CPT; further: nearly all actives have a fitted effect of over 55% in size
# Settings: DT40 Tdp1-/- hTDP1 cells, no CPT, ATP luminescence, 48 h; activity change, negative = growth inhibition: at 46.2 µM (top of the series) unless noted
# Outline: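 Compound effects on proliferation are scored in DT40 Tdp1-/-;hTDP1 cells in the absence of CPT. ATP levels (CellTiter-Glo luminescence) are recorded after a ≥48 hr, 37 °C incubation.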
# On the % scale 0 is the no-effect control and ±100 the full control effect; potency means the concentration at half of the fitted maximal effect; tags describe the fitted curve by direction and shape.
Compound,Potency,"activity change, negative = growth inhibition"
O=c1c(Cc2ccc(Cl)cc2Cl)c(O)ccn1Cc1ccc(Cl)cc1,"inconclusive: 0.116 µM [inhibitor, full curve]",
CCOC(=O)N1CCN(Cc2nc(-c3cccc(C)c3)no2)CC1,,inactive: -27.3%
Cc1cc(C)c2nc(N3CCC(C(=O)NCC4CCCO4)CC3)sc2c1 (centres undefined),,inactive: -5.61%
CCOC(=O)C1(Cc2ccc(Cl)cc2)CCN(Cc2nccn2CC)CC1,"inconclusive: 29.1 µM [inhibitor, single point]",
COc1ccc(CN2C(=O)CCC2(C)C(=O)NC2CCCCC2)c(OC)c1 (centres undefined),,inactive: 12.4%
CCc1ccc(NC(=O)C(=O)NNC(=O)c2cccc(OC)c2)cc1,"inconclusive: 14.6 µM [inhibitor, single point]",
COc1ccc2c(c1)NC(c1ccc(Cl)cc1)=NC(c1cccs1)=N2,,inactive: -76.2%
O=C(COC(=O)c1ccccc1[N+](=O)[O-])c1ccc(C2CCCCC2)cc1,"inconclusive: 23.1 µM [inhibitor, single point]",
Cn1c(/C=C/c2ccc(Cl)cc2Cl)c([N+](=O)[O-])c(=O)n(C)c1=O,active: 5.17 µM,
Cc1ccc(S(=O)(=O)NCCSc2nnnn2-c2ccccc2)cc1,"inconclusive: 20.6 µM [inhibitor, single point]",
CN1CCN(C2=Nc3cc(F)ccc3Cc3ccccc32)CC1,"inconclusive: 33.5 µM [inhibitor, single point] and inconclusive: 18.4 µM [inhibitor, single point]",
Cc1oc2ccc(O)c(CN3CCC(C)CC3)c2c1C(=O)Nc1ccccc1,"inconclusive: 29.1 µM [inhibitor, single point]",
COc1ccc(N2CCN(C(=O)C3CCN(S(=O)(=O)c4c(C)noc4/C=C/N(C)C)CC3)CC2)cc1,"inconclusive: 29.1 µM [inhibitor, single point]",
COc1ccc(Cl)cc1S(=O)(=O)NC(C)C(=O)NCc1ccc2c(c1)OCO2 (centres undefined),"inconclusive: 29.1 µM [inhibitor, single point]",
O=C(/C=C/c1cccc([N+](=O)[O-])c1)NCCN1C(=O)S/C(=C\c2ccc(F)cc2)C1=O,"inconclusive: 2.91 µM [inhibitor, full curve, poor fit]",
O=C(O)c1cccc2c1C(=O)c1cccc3snc-2c13,,inactive: -25.7%
Cc1ccc(NC(=O)COc2ccccc2)c(NC(=O)c2ccccc2C)c1,active: 20.6 µM,
Cc1sc(NC(=O)Nc2ccccc2)c(C(N)=O)c1C,,inactive: -23.7%
CC(=O)OC1C(=O)N(Cc2ccccc2)C1c1ccc(C)cc1 (centres undefined),"inconclusive: 20.6 µM [inhibitor, partial curve]",
CCOc1ccc(NS(=O)(=O)c2ccc(C(=O)NCc3ccncc3)cc2)cc1,active: 13 µM,
CN1CCCN(C(=O)c2cccc(Br)c2)CC1,,inactive: 3.25%
COc1ccc(N2CCN(CCCNC(=O)C(=O)c3c(C)n(C)c4ccccc34)CC2)cc1,,inactive: -3.28%
O=S1(=O)CCN(OCc2ccc(Cl)cc2)CC1,,inactive: -6.52%

Compound,Potency,"activity change, negative = growth inhibition"
CSCC[C@H](NC(=O)C(C)Oc1ccc(Cl)cc1)c1nc2ccccc2[nH]1 (some centres undefined),"inconclusive: 20.6 µM [inhibitor, single point]",
CCn1c(C(=O)N2CCC(Cc3ccccc3)CC2)cc2sccc21,"inconclusive: 23.1 µM [inhibitor, single point]",
Cn1c(Cn2nnc3ccccc32)nnc1SCC(N)=O,,inactive: -11.5%
CCOc1ccc(-c2[nH]ncc2Oc2ccccc2OCC)c(O)c1,"inconclusive: 29.1 µM [inhibitor, single point]",
Cn1c(=O)[nH]c(=O)c2c1nc(NCCO)n2CCOc1ccccc1,,inactive: -8.31%
OC(CCN1CC2CCC(CC2)C1)(Cc1ccccc1)c1ccco1 (centres undefined),"inconclusive: 23.1 µM [inhibitor, single point]",
C[C@H]1O[C@@H](O[C@H]2[C@@H](O)C[C@H](O[C@H]3[C@@H](O)C[C@H](O[C@H]4CC[C@@]5(C)[C@H](CC[C@@H]6[C@@H]5C[C@@H](O)[C@]5(C)[C@@H](C7=CC(=O)OC7)CC[C@]65O)C4)O[C@@H]3C)O[C@@H]2C)C[C@H](O)[C@@H]1O,active: 299 nM and active: 517 nM and active: 596 nM,
Cn1nc(C(C)(C)C)cc1NC(=O)C1(C)CCN1C(=O)c1ccccc1CCc1ccccc1 (centres undefined),"inconclusive: 29.1 µM [inhibitor, single point]",
O=c1c2ccccc2n(Cc2ccccc2F)c(=O)n1Cc1ccccc1F,"inconclusive: 29.1 µM [inhibitor, single point]",
COC(=O)c1c(NC(=O)C2CCCCC2C(=O)O)sc2c1CCCCC2 (centres undefined),,inactive: -22.6%
O=C(Nc1ccc([N+](=O)[O-])cc1)c1ccc(S(=O)(=O)N2CCCC2)cc1,"inconclusive: 3.26 µM [inhibitor, full curve]",
Cc1ccc(S(=O)(=O)N/N=C\c2ccc([N+](=O)[O-])o2)cc1C,"inconclusive: 29.1 µM [inhibitor, single point]",
Cc1ccsc1/C=N/NC(=O)c1ccc(Cn2cc(Br)cn2)o1,"inconclusive: 20.6 µM [inhibitor, single point]",
CC(C)CNC(=O)Cn1c(=O)c2c(ncn2CC(C)C)n(Cc2ccccc2)c1=O,,inactive: 12.1%
Fc1ccc(CNc2nc(-c3ccccc3)nc3ccccc23)cc1,"inconclusive: 23.1 µM [inhibitor, single point]",
COc1ccc(-c2nc3cc(C)ccc3cc2CN(C(=O)c2ccco2)C2CC2)cc1OC,"inconclusive: 13 µM [inhibitor, partial curve, poor fit]",
O=C(COc1ccc([N+](=O)[O-])cc1)Nc1ccc2[nH]c(=O)[nH]c2c1,,inactive: -4.54%
Cc1ccccc1OCc1nnc(SCC(=O)Nc2ccc3c(c2)OCO3)n1C,,inactive: -12.3%
Cc1ccc2c(c1)=C(c1ccccc1)N(O)CC(=O)N=2,,inactive: -17.1%
O=C(CCc1ccccc1)C(=O)N1CCCC(C(=O)c2cccc(Cl)c2)C1 (centres undefined),"inconclusive: 29.1 µM [inhibitor, partial curve, poor fit]",
Cc1onc(-c2ccc(Cl)cc2)c1-c1ccnc(SCC(=O)Nc2cc(Cl)cc(Cl)c2)n1,"inconclusive: 29.1 µM [inhibitor, single point]",
CCCc1nc(SCC(=O)Nc2nnc(SCC)s2)c2c(=O)n(C)c(=O)n(C)c2n1,active: 2.91 µM,
COc1ccc(NS(=O)(=O)c2cc(NC(=O)/C=C/c3cc(OC)ccc3OC)ccc2N2CCCCC2)cc1,,inactive: 4.56%

Compound,Potency,"activity change, negative = growth inhibition"
CCNC(=O)C1(C)CCCN(Cc2cccc3ccccc23)C1 (centres undefined),"inconclusive: 23.1 µM [inhibitor, single point]",
CCC(C)NC(=O)CCc1c(C)nc2nc(-c3cc(OC)cc(OC)c3)nn2c1C (centres undefined),"inconclusive: 16.4 µM [inhibitor, single point] and inconclusive: 29.1 µM [inhibitor, single point]",
CC(C)(C)OC(=O)N1CCC(c2c(C(=O)NCCN3CCC(Cc4ccccc4)CC3)cnn2-c2ccc(F)cc2)CC1,active: 5.17 µM,
O=C(NC1CC1)C(Cc1ccccc1)NS(=O)(=O)c1ccccc1F (centres undefined),"inconclusive: 25.9 µM [inhibitor, single point]",
CCOC(OCC)c1cn(Cc2ccc(C(=O)c3ccccc3)cc2)nn1,active: 23.1 µM,
CCc1ccccc1NC(=O)CSc1nnc2ccc3ccccc3n12,"inconclusive: 25.9 µM [inhibitor, single point]",
COc1ccc(C2N(C(C)=O)CCN2S(=O)(=O)c2ccc(C)cc2)cc1 (centres undefined),"inconclusive: 16.4 µM [inhibitor, partial curve]",
CCN(CC)C(=O)C(c1ccccc1)S(=O)(=O)N1CCOCC1 (centres undefined),,inactive: -0.727%
O=C(CSCc1cc(=O)c2cc(F)ccc2[nH]1)Nc1ccccc1Cl,"inconclusive: 18.4 µM [inhibitor, single point]",
CCN(CC)CCSc1nc(O)c(-c2ccccc2)c(=O)[nH]1,,inactive: -21.9%
COC(=O)c1cc2oc3ccccc3c2n1Cc1nc(-c2ccccc2C)oc1C,,inactive: -2.68%
Cc1ccc(S(=O)(=O)N2CCCCC2CCNC(=O)C(=O)NCc2cccnc2)cc1 (centres undefined),active: 18.4 µM,
COc1ccccc1NC(=O)CSc1nnc(-c2ccoc2C)o1,"inconclusive: 10.3 µM [inhibitor, partial curve]",
CCOc1ccc(N(CC(=O)NCCSCc2ccccc2)S(=O)(=O)c2ccccc2)cc1,"inconclusive: 29.1 µM [inhibitor, single point]",
COc1ccc(OC)c(CCNc2nc3ccccc3c3nc(-c4cccnc4)nn23)c1,"inconclusive: 3.26 µM [inhibitor, partial curve, poor fit]",
CC(C)n1nccc1NC(=O)Nc1ccccc1,"inconclusive: 20.6 µM [inhibitor, single point]",
O=C(N1CCCC1)C12CCC3CC(CC(C3)C1)C2,"inconclusive: 14.6 µM [inhibitor, partial curve, poor fit]",
COc1ccc(C2=NN(C(=O)CSc3ncccn3)C(c3ccc(C)cc3)C2)cc1 (centres undefined),active: 18.4 µM,
CCCCCOc1ccc(C(=O)NCCC(=O)NCCCC(=O)OCC)cc1,"inconclusive: 29.1 µM [inhibitor, single point]",
O=C(COC(=O)c1ccccc1O)NCc1ccc2c(c1)OCO2,"inconclusive: 20.6 µM [inhibitor, single point]",
Cc1sc(NC(=O)C(C)C)c(C(=O)Nc2ccccc2)c1C,active: 14.6 µM,
Cc1ccc(-c2csc3nc(C)n(-n4cccc4)c(=O)c23)o1,,inactive: -7.39%
CCOc1cc(-c2nc(-c3ccc(C)nc3OCC)no2)cc(OCC)c1OCC,"inconclusive: 8.2 µM [inhibitor, partial curve]",

# — PubChem BioAssay AID686978 (National Center for Advancing Translational Sciences (NCATS), 2013)
